Source: PubChem BioAssay (NCATS)
Several values for one entry are separate records, joined by “and”; a condition that tells them apart may be missing. Identical values can stand only once. This list was built around the results that the source calls inconclusive (neither active nor inactive); the mix of calls is not that of the screen. Potencies of inconclusive entries are doubtful fits and often do not repeat. Activity calls are given as the source filed them. Calls follow the shape of the dose curve; as a rule, active = well fitted curve in the direction sought with a large enough effect; inconclusive = small, poorly fitted or top-dose-only effect, or another doubt; inactive = no such curve, though single readings can be large; an effect the other way counts as inactive or inconclusive.

How the values were obtained:
[1] = Viability qHTS for spleen associated tyrosine kinase inhibitor (SYKi) naive MV4-11 cells (AID 1963823); conditions: MV4-11 AML viability, CellTiter-Glo luminescence, 72 h; viability (% of control): at 45 µM (top of the series); also: nearly all actives have a fitted effect of over 40% in size
In short: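 SYKi-naive MV4-11 AML cells, 500 per well, were exposed to library compounds for 72 hr at 37 C, 5% CO2. Viability was then read by CellTiter-Glo luminescence after 10 min at room temperature.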

[2] = Quantitative highthroughput screen to assess conditional lethalithy of NOMO1 cells grown in RPMI1640 with untreated serum (RPMI+s) (AID 1963876); conditions: NOMO1 AML cells in RPMI+serum, CellTiter-Glo viability, 48 h; viability: at 45.8 µM (top of the series); also: nearly all actives have a fitted effect of over 35% in size;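 as to Viability: 100% = DMSO wells and 0% = empty wells without cells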
In short: (§1)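 Each medium arm—HPLM with 10% dialyzed FBS, or RPMI1640 with 5 mM glucose and 10% untreated or dialyzed FBS—was screened against an 11-point, 3-fold compound titration for 48 h at 37 °C, with CellTiter-Glo luminescence as endpoint.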

[3] = Quantitative highthroughput screen to assess conditional lethalithy of NOMO1 cells grown in RPMI1640 with dialyzed fetal bovine serum (RPMI+ds) (AID 1963877); also: nearly all actives have a fitted effect of over 30% in size;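 as to Viability: 100% = DMSO control wells and 0% = empty wells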
In short: as §1

[4] = Quantitative highthroughput screen to assess conditional lethalithy of NOMO1 cells grown in Human Plasma-Like Medium with dialyzed fetal bovine serum (HPLM+ds) (AID 1963878); conditions: NOMO1 AML cells in HPLM+ds, CellTiter-Glo viability, 48 h; viability: at 45.8 µM (top of the series); also: nearly all actives have a fitted effect of over 35% in size;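 as to Viability: 100% = DMSO wells and 0% = empty wells on each plate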
In short: as §1

[5] = Quantitative highthroughput screen to assess conditional lethalithy of P12 Ichikawa cells grown in Human Plasma-Like Medium with dialyzed fetal bovine serum (HPLM+ds) (AID 1963879); conditions: Potency: viability; also: nearly all actives have a fitted effect of over 35% in size
In short: as §1

[6] = Quantitative highthroughput screen to assess conditional lethalithy of P12 Ichikawa cells grown in RPMI1640 with dialyzed fetal bovine serum (RPMI+ds) (AID 1963880); conditions: Potency: P12-Ichikawa viability; also: nearly all actives have a fitted effect of over 35% in size;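 as to Viability: 100% = DMSO wells and 0% = empty wells on each plate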
In short: as §1

[7] = Quantitative highthroughput screen to assess conditional lethalithy of P12 Ichikawa cells grown in RPMI1640 with untreated serum (RPMI+s) (AID 1963881); conditions: Potency: viability; also: nearly all actives have a fitted effect of over 35% in size;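 as to Viability: 100% = DMSO wells and 0% = empty wells without cells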
In short: as §1

[8] = Quantitative highthroughput screen to assess conditional lethalithy of SEM cells grown in Human Plasma-Like Medium with dialyzed fetal bovine serum (HPLM+ds) (AID 1963882); also: nearly all actives have a fitted effect of over 35% in size
In short: as §1

[9] = Quantitative highthroughput screen to assess conditional lethalithy of SEM cells grown in RPMI1640 with unreated serum (RPMI+s) (AID 1963883); conditions: SEM B-ALL cells, CellTiter-Glo viability, 48 h; viability: at 45.8 µM (top of the series); also: nearly all actives have a fitted effect of over 35% in size
In short: as §1

[10] = Quantitative highthroughput screen to assess conditional lethalithy of SEM cells grown in RPMI1640 with dialyzed fetal bovine serum (RPMI+ds) (AID 1963884); conditions: SEM B-ALL cells, RPMI+dialyzed FBS, CellTiter-Glo viability, 48 h; viability: at 45.8 µM (top of the series); also: nearly all actives have a fitted effect of over 35% in size
In short: as §1

[11] = Cellular viability qHTS for adrenocortical cancer (ACC) cell line SW-13 (AID 1963989); conditions: SW-13 ACC cells viability, CellTiter-Glo, 48 h; activity (max response): stronger effect = lower value; also: nearly all actives have a fitted effect of over 65% in size;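 as to activity (max response): cells grown in serum-free medium with ITS supplement; % is scaled to controls: 0 for no effect and ±100 for the full control effect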
In short: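 Viability was read as CellTiter-Glo luminescence after 48 h compound treatment (up to 46 uM final) of SW-13 cells grown serum-free; titration curves were fit with a four-parameter logistic model to give IC50 and efficacy.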

[12] = Cellular viability qHTS for adrenocortical cancer (ACC) cell line NCI-H295R (AID 1963990); conditions: CellTiter-Glo ATP luminescence, 48 h; activity change, negative = viability loss: at 46.1 µM (top of the series); also: nearly all actives have a fitted effect of over 60% in size
In short: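 CellTiter-Glo ATP luminescence, read 48 h after compound addition, measured viability of NCI-H295R adrenocortical cells grown serum-free with ITS. Final concentrations spanned up to 46 uM. Data normalized to DMSO and doxorubicin, fitted for IC50 and maximal response.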
Potency is read from the fitted curve at half-maximal effect; tags tell the direction and shape of the fitted curve.

Row | Structure (SMILES) | Potency [1] | Potency [2] | Potency [3] | Potency [4] | Potency [5] | Potency [6] | Potency [7] | Potency [8] | Potency [9] | Potency [10] | activity (max response) [11] | Potency [11] | Potency [12]
1 | CNC(=O)c1cc(Oc2ccc(NC(=O)Nc3cc(C(C)(C)C)nn3-c3ccc4ncccc4c3)c(F)c2)ccn1 | active: 36.6 nM and inconclusive: 29.5 nM [cytotoxic, full curve] | inactive | inconclusive: 26.4 nM [rising, full curve, poor fit] | inactive | inactive | inactive | inactive | inconclusive: 935 nM [cytotoxic, full curve] | inconclusive: 1320 nM [cytotoxic, full curve] | active: 469 nM | – | – | –
2 | CC1(C)O[C@@H]2C[C@H]3[C@@H]4CCC5=CC(=O)C=C[C@]5(C)[C@@H]4[C@@H](O)C[C@]3(C)[C@]2(C(=O)CO)O1 | inconclusive: 0.9 nM | inactive | inactive | inactive | inconclusive: 148 nM [cytotoxic, full curve] | inconclusive: 148 nM [cytotoxic, full curve] | inconclusive: 132 nM [cytotoxic, full curve] | inconclusive: 166 nM [cytotoxic, full curve, poor fit] | inconclusive: 148 nM [cytotoxic, full curve, poor fit] | inconclusive: 526 nM [cytotoxic, full curve, poor fit] | inactive: -5.21% | – | –
3 | Cn1c2ccccc2c2c3c(c4c5ccccc5n(CCC#N)c4c21)CNC3=O | active: 65.1 nM | inconclusive: 1660 nM [cytotoxic, full curve] | inconclusive: 1480 nM [cytotoxic, full curve] | inconclusive: 833 nM [cytotoxic, full curve] | inconclusive: 1320 nM [cytotoxic, full curve] | inconclusive: 1320 nM [cytotoxic, full curve] | inconclusive: 1320 nM [cytotoxic, full curve] | active: 372 nM | – | – | – | inconclusive: 8910 nM [cytotoxic, partial curve, poor fit] | –
4 | Cc1cc(Nc2cc(NC(=O)c3c(Cl)cccc3Cl)ccn2)nc(N)n1 | inconclusive: 184 nM [cytotoxic, full curve] | inconclusive: 1870 nM [cytotoxic, full curve] | inconclusive: 1050 nM [cytotoxic, full curve] | inconclusive: 1180 nM [cytotoxic, full curve] | inconclusive: 935 nM [cytotoxic, full curve] | active: 1180 nM | inconclusive: 935 nM [cytotoxic, full curve] | inconclusive: 1180 nM [cytotoxic, full curve] | inconclusive: 1480 nM [cytotoxic, full curve] | active: 1050 nM | – | inconclusive: 631 nM [cytotoxic, full curve, poor fit] | –
5 | NCCOc1cc(C(=O)Nc2cc(OCCN)c3ccccc3n2)nc(C(=O)Nc2cc(OCCN)c3ccccc3n2)c1 | active: 1.3 µM and active: 1.66 µM | inconclusive: 2.1 nM [cytotoxic, full curve] | inconclusive: 11.7 nM [cytotoxic, full curve] | inactive | inconclusive: 20900 nM [rising, single point] | inconclusive: 9.3 nM [cytotoxic, full curve] | inconclusive: 11.7 nM [cytotoxic, full curve] | inconclusive: 6.6 nM [cytotoxic, full curve, poor fit] | inconclusive: 18600 nM [rising, partial curve, poor fit] | inconclusive: 4.7 nM [cytotoxic, full curve] | – | inconclusive: 22400 nM [cytotoxic, partial curve] | inconclusive: 35500 nM [cytotoxic, single point]
6 | CNC(=O)c1nn(C)c2c1C(C)(C)Cc1cnc(Nc3ccc(N4CCN(C)CC4)cc3)nc1-2 | active: 51.7 nM and active: 74.2 nM | active: 16600 nM | active: 14800 nM | active: 8330 nM | inconclusive: 5900 nM [cytotoxic, full curve] | inconclusive: 2640 nM [cytotoxic, full curve] | inconclusive: 4690 nM [cytotoxic, partial curve] | active: 264 nM | – | – | – | active: 5010 nM | active: 14100 nM
7 | NC1(c2ccc(-c3nc4ccn5c(=O)[nH]nc5c4cc3-c3ccccc3)cc2)CCC1 | inconclusive: 11.9 µM [cytotoxic, partial curve] and inconclusive: 7.31 µM [cytotoxic, partial curve, poor fit] | inconclusive: 33200 nM [cytotoxic, single point] | inconclusive: 29600 nM [cytotoxic, partial curve] | active: 20900 nM | inconclusive: 7430 nM [cytotoxic, partial curve] | inconclusive: 5900 nM [cytotoxic, partial curve] | inconclusive: 1660 nM [cytotoxic, full curve] | – | – | – | – | – | –
